Test results from patent US20250019701A1, “TREATMENT FOR INFLAMMATORY DISEASE” (priority 2021, published 2025).

system: Vero cells; conditions: Vero cells 24 and 48 hours post-infection; etifoxine 30 μM, FGIN 1-27 200 nM, PK11195 200 nM, XBD 173 30 μM

SMILES	protection from SARS-CoV-2 triggered cell death / cytotoxicity (qualitative)
CCN(Cc1ccccc1)C(=O)Cn1c(=O)n(C)c2cnc(-c3ccccc3)nc21 [XBD173]	protection
CCCCCCN(CCCCCC)C(=O)Cc1c(-c2ccc(F)cc2)[nH]c2ccccc12 [FGIN, FGIN 1-27]	protection
CCC(C)N(C)C(=O)c1cc2ccccc2c(-c2ccccc2Cl)n1 (stereo not drawn) [PK11195]	protection
